In PMC4336329 (PLoS ONE, 2015):
The whole screen tested about 310,000 compounds, of which about 2,200 (0.71%) showed an effect of 50% or more. Effects have a minus sign here. The list shows a part of the results.

Molecular target: human ether-à-go-go-related gene (hERG) potassium channel (human, UniProt Q12809)
Assay: primary screen, population patch clamp on CHO cells stably expressing hERG

Chain of human ether-à-go-go-related gene (hERG) potassium channel (Q12809 whole entry, looked up): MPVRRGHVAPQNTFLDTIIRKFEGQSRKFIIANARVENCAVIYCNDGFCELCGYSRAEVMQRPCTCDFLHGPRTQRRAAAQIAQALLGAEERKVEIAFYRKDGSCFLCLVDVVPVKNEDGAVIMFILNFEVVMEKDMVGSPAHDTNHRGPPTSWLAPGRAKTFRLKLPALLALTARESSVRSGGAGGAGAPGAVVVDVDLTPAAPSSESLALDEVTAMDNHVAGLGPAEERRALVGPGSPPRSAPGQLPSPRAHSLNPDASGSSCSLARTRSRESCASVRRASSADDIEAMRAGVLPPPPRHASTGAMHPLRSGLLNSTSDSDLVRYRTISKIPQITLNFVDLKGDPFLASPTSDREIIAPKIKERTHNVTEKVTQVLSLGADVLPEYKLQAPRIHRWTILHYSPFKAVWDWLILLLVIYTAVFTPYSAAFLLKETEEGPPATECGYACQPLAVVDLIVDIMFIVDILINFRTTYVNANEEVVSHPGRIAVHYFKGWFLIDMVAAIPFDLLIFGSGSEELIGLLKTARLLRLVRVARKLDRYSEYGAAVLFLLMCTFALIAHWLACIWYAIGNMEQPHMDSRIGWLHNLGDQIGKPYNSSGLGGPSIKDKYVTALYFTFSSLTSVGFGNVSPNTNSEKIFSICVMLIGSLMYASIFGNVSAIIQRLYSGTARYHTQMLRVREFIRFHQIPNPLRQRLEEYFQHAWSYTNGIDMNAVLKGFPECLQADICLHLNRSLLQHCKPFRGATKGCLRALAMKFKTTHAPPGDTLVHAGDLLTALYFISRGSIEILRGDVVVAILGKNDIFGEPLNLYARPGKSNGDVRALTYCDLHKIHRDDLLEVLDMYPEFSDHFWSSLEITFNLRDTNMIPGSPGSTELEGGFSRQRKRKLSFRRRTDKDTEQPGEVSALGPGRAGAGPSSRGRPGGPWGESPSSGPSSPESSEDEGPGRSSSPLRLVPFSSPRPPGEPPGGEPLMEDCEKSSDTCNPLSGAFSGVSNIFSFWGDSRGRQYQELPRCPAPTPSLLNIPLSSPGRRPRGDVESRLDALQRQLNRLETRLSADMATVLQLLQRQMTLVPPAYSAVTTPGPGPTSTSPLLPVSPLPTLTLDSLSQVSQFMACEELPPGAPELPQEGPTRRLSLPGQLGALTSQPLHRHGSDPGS

| Compound | hERG current change (%, negative = inhibition) at 1uM [%] |
| --- | --- |
| CC(=O)c1c(C)[nH]c(C(=O)Nc2cccc(S(=O)(=O)N(C)C)c2)c1C | 11.8 |
| CN1Cc2c(N3CCOCC3)nc3sc(C(=O)c4ccc(Br)cc4)c(N)c3c2CC1(C)C | 11.1 |
| CCCCn1c(SC(C)C(=O)c2ccc(OC)cc2)nc2cc(S(N)(=O)=O)ccc21 (centres unmarked) | 3 |
| CCC(C)[C@H](NC(=O)[C@H](Cc1ccccc1)n1c(=O)[nH]c2ccccc2c1=O)C(=O)N1CCC(C(=O)O)CC1 (some centres unmarked) | -9.94 |
| O=C(N1CCN(c2ccccc2)CC1)C1(c2cccs2)CCOCC1 | 13 |
| Cc1ccc(Sc2ccc(NC(=O)CCl)cc2)c(C)c1 | 11.3 |
| O=C(COc1c(Br)cc(Br)c2cccnc12)N1CCc2ccccc2C1 | 6.11 |
| O=C(N/N=C/c1ccccn1)C(O)c1ccccc1 (centres unmarked) | 6.88 |
| COc1ccc(C(=O)COc2nc(C)cc(C)c2C#N)cc1 | -2.15 |
| Cc1scc(C(=O)N/N=C/c2ccco2)c1C | 11.1 |
| O=C(NNS(=O)(=O)c1ccccc1)c1ccc(S(=O)(=O)N2CCCCC2)cc1 | -4.63 |
| Cc1ccccc1-n1ncc2c(SCC(=O)NCc3cccs3)ncnc21 | 13.9 |
| CCN(CC)S(=O)(=O)c1ccc(C(=O)/C=C/c2ccc(-c3ccc([N+](=O)[O-])cc3)o2)cc1 | -4.04 |
| COc1ccc(NS(=O)(=O)c2cccc(Cl)c2Cl)cc1S(=O)(=O)N1CCCCC1 | -6.3 |
| Cc1cccc(C)c1NC(=O)CNC(=O)CN1C(=O)NC2(CCc3ccccc32)C1=O (centres unmarked) | 4.07 |
| Oc1c(Br)cc(/C=N/Nc2nncc3ccccc23)cc1Br | 16.1 |
| COc1ccc(CSc2nc(C)cc(=O)[nH]2)cc1 | 5.27 |
| COc1ccc(Cl)cc1NC(=O)Nc1ccc(C(=O)N2CCCC2)cc1 | -1.05 |
| CCOC(=O)c1c(CN2CCOCC2)n(C)c2cc(Br)c(O)c(CN(C)C)c12.Cl | -2.58 |
| CCn1c(=O)c2cc(C(=O)NCCN3CCOCC3)sc2c2ccccc21 | 14 |
| O=C(O)c1cccc(S(=O)(=O)N2CCN(Cc3ccc4c(c3)OCO4)CC2)c1 | 15.6 |
| Cc1ccc2nc(-c3ccccc3)cc(C(=O)N(C)CC(=O)Nc3ccccc3Br)c2c1 | 4.78 |
| O=C(COC(=O)CCc1c[nH]c(=O)[nH]1)Nc1cccc(Cl)c1 | -4.07 |
